According to patent publication US7595299B2, “Peptides as NS3-serine protease inhibitors of hepatitis C virus” (priority 2000, dated 2009):
Starred links: 1 amine or outer side, 2 acyl side, 3 side chain; linkers in the order of their positions; H or OH if unused. Non-standard residues stand in square brackets, D forms with d. Residues, ends and D or L forms follow the SMILES beside them. *: point of attachment. Benzoyl(2-COOH-4,5-Cl2) = O=C(O)c1cc(Cl)c(Cl)cc1C(=O)*; Gly(piperidin-4-yl) = N[C@H](C(=O)O)C1CCNCC1; Bip = N[C@@H](Cc1ccc(-c2ccccc2)cc1)C(=O)O; dPhg(2-F) = N[C@@H](C(=O)O)c1ccccc1F; Isobutyloxycarbonyl = CC(C)COC(=O)*; Gly(cPent) = N[C@H](C(=O)O)C1CCCC1; X4 = CCCC(N[*:1])C(=O)C(=O)[*:2]; Ala(cPr) = N[CH](CC1CC1)C(=O)O; Chg = N[CH](C(=O)O)C1CCCCC1; Phg = N[CH](C(=O)O)c1ccccc1; Salicyloyl = O=C(c1ccccc1O)*; 2Abz = Nc1ccccc1C(=O)O; Boc = CC(C)(C)OC(=O)*; OtBu = CC(C)(C)O*

biological target: Recombinant heterodimeric HCV NS3/NS4A protease (strain 1a) (Hepatitis C virus genotype 1a, UniProt P27958); experiment: biochemical; conditions: not given
Description: Spectrophotometric Assay: Spectrophotometric assay for the HCV serine protease was performed on the inventive compounds by following the procedure described by R. Zhang et al, Analytical Biochemistry, 270 (1999) 268-275, the disclosure of which is incorporated herein by reference. The assay based on the proteolysis of chromogenic ester substrates is suitable for the continuous monitoring of HCV NS3 protease activity. The substrates were derived from the P side of the NS5A-NS5B junction sequence (Ac-DTEDVVX(Nva), where X=A or P) whose C-terminal carboxyl groups were esterified with one of four different chromophoric alcohols (3- or 4-nitrophenol, 7-hydroxy-4-methyl-coumarin, or 4-phenylazophenol). […] Materials and Methods:
Materials: Chemical reagents for assay related buffers were obtained from Sigma Chemical Company (St. Louis, Mo.). Reagents for peptide synthesis were from Aldrich Chemicals, Novabiochem (San Diego, Calif.), Applied Biosystems (Foster City, Calif.) and Perseptive Biosystems (Framingham, Mass.). Peptides were synthesized manually or on an automated ABI model 431A synthesizer (from Applied Biosystems). UV/VIS Spectrometer model LAMBDA 12 was from Perkin Elmer (Norwalk, Conn.) and 96-well UV plates were obtained from Corning (Corning, N.Y.). The prewarming block was from USA Scientific (Ocala, Fla.) and the 96-well plate vortexer was from Labline Instruments (Melrose Park, Ill.). A Spectramax Plus microtiter plate reader with monochrometer was obtained from Molecular Devices (Sunnyvale, Calif.).
Protein concentrations were determined by the Biorad dye method using recombinant HCV protease standards previously quantified by amino acid analysis. Prior to assay initiation, the enzyme storage buffer (50 mM sodium phosphate pH 8.0, 300 mM NaCl, 10% glycerol, 0.05% lauryl maltoside and 10 mM DTT) was exchanged for the assay buffer (25 mM MOPS pH 6.5, 300 mM NaCl, 10% glycerol, 0.05% lauryl maltoside, 5 μM EDTA and 5 μM DTT) utilizing a Biorad Bio-Spin P-6 prepacked column.
Substrate Synthesis and Purification: The synthesis of the substrates was done as reported by R. Zhang et al, (ibid.) and was initiated by anchoring Fmoc-Nva-OH to 2-chlorotrityl chloride resin using a standard protocol (K. Barlos et al, Int. J. Pept. Protein Res., 37 (1991), 513-520). The peptides were subsequently assembled, using Fmoc chemistry, either manually or on an automatic ABI model 431 peptide synthesizer. […] The combined filtrate and DCM wash was evaporated azeotropically (or repeatedly extracted by aqueous Na2CO3 solution) to remove the acid used in cleavage. The DCM phase was dried over Na2SO4 and evaporated.
The ester substrates were assembled using standard acid-alcohol coupling procedures (K. Holmber et al, Acta Chem. Scand., B33 (1979) 410-412). Peptide fragments were dissolved in anhydrous pyridine (30-60 mg/ml) to which 10 molar equivalents of chromophore and a catalytic amount (0.1 eq.) of para-toluenesulfonic acid (pTSA) were added. Dicyclohexylcarbodiimide (DCC, 3 eq.) was added to initiate the coupling reactions. […] Pyridine solvent was evaporated under vacuum and further removed by azeotropic evaporation with toluene. The peptide ester was deprotected with 95% TFA in DCM for two hours and extracted three times with anhydrous ethyl ether to remove excess chromophore. The deprotected substrate was purified by reversed phase HPLC on a C3 or C8 column with a 30% to 60% acetonitrile gradient (using six column volumes).

| Compound | Ki |
| --- | --- |
| CCCC(NC(=O)[C@H](CC(C)C)NC(=O)[C@@H](NC(=O)OCC(C)C)C1CCN(C(=O)c2ccccc2)CC1)C(=O)C(=O)NCC(=O)N[C@H](C(=O)O)c1ccccc1 (some centres unmarked) [Example 51] | 0.101 to 1 µM |
| CCCC(NC(=O)C(CC1OCCO1)NC(=O)C(NC(=O)OCC(C)C)C1CCCCC1)C(=O)C(=O)NCC(=O)NC(C(=O)O)c1ccccc1 (centres unmarked) [Example 66] | 0.101 to 1 µM |
| CCCC(NC(=O)[C@H](CC(C)C)NC(=O)[C@@H](NC(=O)c1ccccc1N)C1CCCCC1)C(=O)C(=O)NCC(=O)N[C@H](C(=O)O)c1ccccc1 (some centres unmarked) [Example 70] (H-[2Abz][Chg]L[X4]G[Phg]-OH) | 0.101 to 1 µM |
| CCCC(NC(=O)[C@H](CC(C)C)NC(=O)[C@@H](NC(=O)c1ccccc1O)C1CCCCC1)C(=O)C(=O)NCC(=O)N[C@H](C(=O)O)c1ccccc1 (some centres unmarked) [Example 71] (Salicyloyl-[Chg]L[X4]G[Phg]-OH) | 0.101 to 1 µM |

same assay, conditions: HCV protease continuous assay, Table 1; read-out: Ki* Range

| Compound | Ki |
| --- | --- |
| CCCC(NC(=O)[C@H](Cc1ccc(-c2ccccc2)cc1)NC(=O)[C@@H](NC(=O)OCC(C)C)C1CCCCC1)C(=O)C(=O)NCC(=O)N[C@H](C(=O)O)c1ccccc1 (some centres unmarked) [Example 37] (Isobutyloxycarbonyl-[Chg][Bip][X4]G[Phg]-OH) | > 1 µM |
| CCCC(NC(=O)[C@H](Cc1c[nH]cn1)NC(=O)[C@@H](NC(=O)OC(C)(C)C)C1CCCCC1)C(=O)C(=O)NCC(=O)N[C@H](C(=O)O)c1ccccc1 (some centres unmarked) [Example 38] (Boc-[Chg]H[X4]G[Phg]-OH) | 0.101 to 1 µM |
| CCCC(NC(=O)C(CC1SCCC[S+]1[O-])NC(=O)C(NC(=O)OCC(C)C)C1CCCCC1)C(=O)C(=O)NCC(=O)NC(C(=O)OC(C)(C)C)c1ccccc1 (centres unmarked) [Example 39] | > 1 µM |
| CCCC(NC(=O)C(CC1SCCS1)NC(=O)C(NC(=O)OCC(C)C)C1CCCCC1)C(=O)C(=O)NCC(=O)NC(C(=O)OC(C)(C)C)c1ccccc1 (centres unmarked) [Example 40] | > 1 µM |
| CCCC(NC(=O)C(CC1SCCCS1)NC(=O)C(NC(=O)OCC(C)C)C1CCCCC1)C(=O)C(=O)NCC(=O)NC(C(=O)O)c1ccccc1 (centres unmarked) [Example 41] | 0.101 to 1 µM |
| CCCC(NC(=O)C(CC1SCCCS1)NC(=O)C(NC(=O)OCC(C)C)C1CCCCC1)C(=O)C(=O)NCC(=O)NC(C(=O)OC(C)(C)C)c1ccccc1 (centres unmarked) [Example 42] | > 1 µM |
| CCCC(NC(=O)C(CC1SCCS1)NC(=O)C(NC(=O)OCC(C)C)C1CCCCC1)C(=O)C(=O)NCC(=O)NC(C(=O)O)c1ccccc1 (centres unmarked) [Example 43] | < 0.1 µM |
| CCCC(NC(=O)[C@H](CC(C)C)NC(=O)[C@@H](NC(=O)OCC(C)C)C1CCN(C(=O)OCC[Si](C)(C)C)CC1)C(=O)C(=O)NCC(=O)N[C@H](C(=O)O)c1ccccc1 (some centres unmarked) [Example 44] | > 1 µM |
| CCCC(NC(=O)[C@H](CC(C)C)NC(=O)[C@@H](NC(=O)OCC(C)C)C1CCNCC1)C(=O)C(=O)NCC(=O)N[C@H](C(=O)O)c1ccccc1 (some centres unmarked) [Example 45] (Isobutyloxycarbonyl-[Gly(piperidin-4-yl)]L[X4]G[Phg]-OH) | > 1 µM |
| CCCC(NC(=O)[C@H](CC(C)C)NC(=O)[C@@H](NC(=O)c1cc(Cl)c(Cl)cc1C(=O)O)C1CCNCC1)C(=O)C(=O)NCC(=O)N[C@H](C(=O)O)c1ccccc1 (some centres unmarked) [Example 47] ({Benzoyl(2-COOH-4,5-Cl2)}-[Gly(piperidin-4-yl)]L[X4]G[Phg]-OH) | > 1 µM |
| CCCC(NC(=O)[C@H](CC(C)C)NC(=O)[C@@H](NC(=O)OC(C)(C)C)C1CCCCC1)C(=O)C(=O)NCC(=O)N[C@@H](C(=O)OC)c1ccccc1F (some centres unmarked) [Example 48] (Boc-[Chg]L[X4]G[dPhg(2-F)]-OMe) | 0.101 to 1 µM |
| CCCC(NC(=O)[C@H](CC(C)C)NC(=O)[C@@H](NC(=O)OC(C)(C)C)C1CCCCC1)C(=O)C(=O)NCC(=O)N[C@@H](C(=O)O)c1ccccc1F (some centres unmarked) [Example 49] (Boc-[Chg]L[X4]G[dPhg(2-F)]-OH) | < 0.1 µM |
| CCCC(NC(=O)[C@H](CC(C)C)NC(=O)[C@@H](NC(=O)OCC(C)C)C1CCN(C(=O)OCC2c3ccccc3-c3ccccc32)CC1)C(=O)C(=O)NCC(=O)N[C@H](C(=O)O)c1ccccc1 (some centres unmarked) [Example 50] | > 1 µM |
| CCCC(NC(=O)[C@H](CC(C)C)NC(=O)[C@@H](NC(=O)OCC(C)C)C1CCN(C(=O)c2ccc(C(=O)O)cc2)CC1)C(=O)C(=O)NCC(=O)N[C@H](C(=O)O)c1ccccc1 (some centres unmarked) [Example 52] | 0.101 to 1 µM |
| CCCC(NC(=O)[C@H](CC(C)C)NC(=O)[C@@H](NC(=O)OCC(C)C)C1CCN(C(=O)c2ccc(S(N)(=O)=O)cc2)CC1)C(=O)C(=O)NCC(=O)N[C@H](C(=O)O)c1ccccc1 (some centres unmarked) [Example 53] | 0.101 to 1 µM |
| CCCC(NC(=O)[C@H](CC(C)C)NC(=O)[C@@H](NC(=O)OCC(C)C)C1CCN(C(C)=O)CC1)C(=O)C(=O)NCC(=O)N[C@H](C(=O)O)c1ccccc1 (some centres unmarked) [Example 54] | 0.101 to 1 µM |

| Compound | Ki |
| --- | --- |
| CCCC(NC(=O)[C@H](CC(C)C)NC(=O)[C@@H](NC(=O)OCC(C)C)C1CCN(C(=O)CC(C)(C)C)CC1)C(=O)C(=O)NCC(=O)N[C@H](C(=O)O)c1ccccc1 (some centres unmarked) [Example 55] | > 1 µM |
| CCCC(NC(=O)[C@H](CC(C)C)NC(=O)[C@@H](NC(=O)OCC(C)C)C1CCN(C(=O)CC2CCCCC2)CC1)C(=O)C(=O)NCC(=O)N[C@H](C(=O)O)c1ccccc1 (some centres unmarked) [Example 56] | 0.101 to 1 µM |
| CCCC(NC(=O)[C@H](CC(C)C)NC(=O)[C@@H](NC(=O)OCC(C)C)C1CCN(C(=O)C2CCCC2)CC1)C(=O)C(=O)NCC(=O)N[C@H](C(=O)O)c1ccccc1 (some centres unmarked) [Example 57] | 0.101 to 1 µM |
| CCCC(NC(=O)[C@H](CC(C)C)NC(=O)[C@@H](NC(=O)OCC(C)C)C1CCN(C(=O)CNC(C)=O)CC1)C(=O)C(=O)NCC(=O)N[C@H](C(=O)O)c1ccccc1 (some centres unmarked) [Example 58] | > 1 µM |
| CCCC(NC(=O)[C@H](CC(C)C)NC(=O)[C@@H](NC(=O)OCC(C)C)C1CCN(C(=O)[C@H](CC(C)C)NS(C)(=O)=O)CC1)C(=O)C(=O)NCC(=O)N[C@H](C(=O)O)c1ccccc1 (some centres unmarked) [Example 59] | 0.101 to 1 µM |
| CCCC(NC(=O)C(CC1OCCCO1)NC(=O)C(NC(=O)OCC(C)C)C1CCCCC1)C(=O)C(=O)NCC(=O)NC(C(=O)OC(C)(C)C)c1ccccc1 (centres unmarked) [Example 60] | > 1 µM |
| CCCC(NC(=O)C(CC1CC1)NC(=O)C(NC(=O)OCC(C)C)C1CCCCC1)C(=O)C(=O)NCC(=O)NC(C(=O)OC(C)(C)C)c1ccccc1 (centres unmarked) [Example 61] (Isobutyloxycarbonyl-[Chg][Ala(cPr)][X4]G[Phg]-OtBu; configuration not given here) | > 1 µM |
| CCCC(NC(=O)C(CC1CC1)NC(=O)C(NC(=O)OCC(C)C)C1CCCCC1)C(=O)C(=O)NCC(=O)NC(C(=O)O)c1ccccc1 (centres unmarked) [Example 62] (Isobutyloxycarbonyl-[Chg][Ala(cPr)][X4]G[Phg]-OH; configuration not given here) | < 0.1 µM |
| CCCC(NC(=O)C(CC1SCc2ccccc2CS1)NC(=O)C(NC(=O)OCC(C)C)C1CCCCC1)C(=O)C(=O)NCC(=O)NC(C(=O)O)c1ccccc1 (centres unmarked) [Example 63] | > 1 µM |
| CCCC(NC(=O)C(CC1OCCCO1)NC(=O)C(NC(=O)OCC(C)C)C1CCCCC1)C(=O)C(=O)NCC(=O)NC(C(=O)O)c1ccccc1 (centres unmarked) [Example 64] | 0.101 to 1 µM |
| CCCC(NC(=O)C(CC1OCCO1)NC(=O)C(NC(=O)OCC(C)C)C1CCCCC1)C(=O)C(=O)NCC(=O)NC(C(=O)OC(C)(C)C)c1ccccc1 (centres unmarked) [Example 65] | > 1 µM |
| CCCC(NC(=O)[C@H](CC(C)C)NC(=O)[C@H](C1CCCCC1)N1C(=O)c2ccccc2C1=O)C(=O)C(=O)NCC(=O)N[C@H](C(=O)OCc1ccccc1)c1ccccc1 (some centres unmarked) [Example 67] | > 1 µM |
| CCCC(NC(=O)[C@H](CC(C)C)NC(=O)[C@H](C1CCCCC1)N1C(=O)c2ccccc2C1=O)C(=O)C(=O)NCC(=O)N[C@H](C(=O)O)c1ccccc1 (some centres unmarked) [Example 68] | 0.101 to 1 µM |
| CCCC(NC(=O)[C@H](CC(C)C)NC(=O)[C@@H](NC(=O)OCC(C)C)C1CCCCC1)C(=O)C(=O)NCC(=O)N[C@H](C(=O)OC(C)(C)C)c1ccccc1 (some centres unmarked) [Example 69] (Isobutyloxycarbonyl-[Chg]L[X4]G[Phg]-OtBu) | 0.101 to 1 µM |
| CCCC(NC(=O)[C@H](CC(C)C)NC(=O)[C@@H](NC(=O)OCC(C)C)C1CCCC1)C(=O)C(=O)NCC(=O)N[C@H](C(=O)O)c1ccccc1 (some centres unmarked) [Example 72] (Isobutyloxycarbonyl-[Gly(cPent)]L[X4]G[Phg]-OH) | 0.101 to 1 µM |
